Reference: paper PMC4336329 (PLoS ONE, 2015)
In all, about 310,000 compounds went through this assay and about 2,200 (0.71%) showed an effect of 50% or more. Effects have a minus sign here. This is one part of the list.

molecular target: human ether-à-go-go-related gene (hERG) potassium channel (human, UniProt Q12809); test: primary screen, population patch clamp on CHO cells stably expressing hERG
Sequence (Q12809 whole entry, looked up): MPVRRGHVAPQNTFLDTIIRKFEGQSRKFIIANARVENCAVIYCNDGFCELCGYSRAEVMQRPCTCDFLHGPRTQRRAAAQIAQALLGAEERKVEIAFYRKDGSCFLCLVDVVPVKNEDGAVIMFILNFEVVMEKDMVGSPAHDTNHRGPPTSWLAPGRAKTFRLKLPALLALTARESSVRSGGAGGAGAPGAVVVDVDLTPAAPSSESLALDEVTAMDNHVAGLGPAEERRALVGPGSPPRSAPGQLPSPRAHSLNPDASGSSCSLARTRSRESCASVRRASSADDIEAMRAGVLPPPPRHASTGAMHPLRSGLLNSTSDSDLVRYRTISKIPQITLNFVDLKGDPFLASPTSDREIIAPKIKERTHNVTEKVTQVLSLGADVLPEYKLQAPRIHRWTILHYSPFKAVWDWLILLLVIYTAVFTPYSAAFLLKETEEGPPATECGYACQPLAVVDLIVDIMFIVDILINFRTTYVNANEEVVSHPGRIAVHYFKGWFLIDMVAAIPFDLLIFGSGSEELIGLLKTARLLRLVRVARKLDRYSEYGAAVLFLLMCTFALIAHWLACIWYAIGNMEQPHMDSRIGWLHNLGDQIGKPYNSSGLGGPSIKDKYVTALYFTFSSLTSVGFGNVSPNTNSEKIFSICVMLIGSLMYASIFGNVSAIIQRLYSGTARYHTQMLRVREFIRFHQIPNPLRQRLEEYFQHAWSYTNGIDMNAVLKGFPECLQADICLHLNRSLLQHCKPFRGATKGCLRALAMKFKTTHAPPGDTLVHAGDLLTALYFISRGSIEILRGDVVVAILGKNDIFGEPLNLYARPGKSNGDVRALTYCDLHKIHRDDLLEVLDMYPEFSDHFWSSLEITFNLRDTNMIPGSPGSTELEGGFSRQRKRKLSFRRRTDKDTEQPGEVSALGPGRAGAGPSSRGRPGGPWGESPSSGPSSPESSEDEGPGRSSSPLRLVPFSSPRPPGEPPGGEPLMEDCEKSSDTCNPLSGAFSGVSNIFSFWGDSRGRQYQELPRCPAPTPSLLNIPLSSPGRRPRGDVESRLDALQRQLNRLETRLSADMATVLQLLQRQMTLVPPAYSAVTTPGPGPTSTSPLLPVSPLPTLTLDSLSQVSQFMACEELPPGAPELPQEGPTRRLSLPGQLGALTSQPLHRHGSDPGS

Q: With `Cc1c(O)ccc2c(CC(=O)N[C@@H](Cc3ccccc3)C(=O)O)cc(=O)oc12` as the compound, how does the “hERG current change (%, negative = inhibition) at 1uM” value read?
A: 14.3%

Q: For `Cl.OCCNCc1c(OCc2ccc(Cl)cc2)ccc2ccccc12`, which “hERG current change (%, negative = inhibition) at 1uM” value is on record?
A: 5.05%

Q: `Cc1ccc2nc(/C(C#N)=C/c3ccc(O)c(O)c3)[nH]c2c1` was tested. Which “hERG current change (%, negative = inhibition) at 1uM” value did it give?
A: -1.27%

Q: `CCCCN(Cc1ccccc1)C(=O)C1CCN(S(=O)(=O)c2c(C)noc2C)CC1` was tested. Which “hERG current change (%, negative = inhibition) at 1uM” value did it give?
A: 14.8%

Q: Which “hERG current change (%, negative = inhibition) at 1uM” value does the source give for `Nc1ccc(N=Nc2ccccc2)c2cccnc12` here?
A: 9.03%

Q: `O=C(Nc1ccc2c(c1)C(=O)NC2=O)c1cccc(Cl)c1` was tested. Which “hERG current change (%, negative = inhibition) at 1uM” value did it give?
A: 19%

Q: `Cc1cc(=O)oc2cc(OC(C)C(=O)Nc3ccc(N4CCCCC4)cc3)ccc12` (stereo not shown) was tested. Which “hERG current change (%, negative = inhibition) at 1uM” value did it give?
A: 13.9%

Q: Which “hERG current change (%, negative = inhibition) at 1uM” value does the source give for `O=C(CCc1nnc2n(CCc3ccccc3)c(=O)c3ccccc3n12)NCCCN1CCCCC1` here?
A: -9.25%

Q: `Cc1cc(=O)cc(C)[nH]1` was tested. Which “hERG current change (%, negative = inhibition) at 1uM” value did it give?
A: 6.43%

Q: How did the “hERG current change (%, negative = inhibition) at 1uM” value turn out when `CC(C)S(=O)(=O)c1csc(NC(=O)Nc2cc(Cl)ccc2Cl)c1Cl` was run?
A: 5.66%

Q: With `Cc1nn(Cc2ccccc2Cl)c(C)c1N` as the compound, how does the “hERG current change (%, negative = inhibition) at 1uM” value read?
A: 6.88%

Q: For `Cc1ccc(C(=O)OCC(=O)Nc2cccc(S(=O)(=O)NC3=NCCCCC3)c2)c(C)c1`, which “hERG current change (%, negative = inhibition) at 1uM” value is on record?
A: -0.902%

Q: `CCOC(=O)c1cn(Cc2ccc(Cl)cc2Cl)c2cc(C)nn2c1=O` was tested. Which “hERG current change (%, negative = inhibition) at 1uM” value did it give?
A: 3.57%

Q: For `O=S(=O)(c1ccc(F)cc1)n1ccc(-c2cccc(OCc3ccc(Cl)cc3Cl)c2)n1`, which “hERG current change (%, negative = inhibition) at 1uM” value is on record?
A: 7.38%

Q: How did the “hERG current change (%, negative = inhibition) at 1uM” value turn out when `CCCCCCCCCCCCCCCC[n+]1cccc2ccccc21.[I-]` was run?
A: -23%

Q: With `C/C(=N\S(=O)(=O)c1ccc(C)cc1)N(C)C` as the compound, how does the “hERG current change (%, negative = inhibition) at 1uM” value read?
A: 12.6%

Q: For `O=S(=O)(CCN1CCOCC1)c1ccccc1`, which “hERG current change (%, negative = inhibition) at 1uM” value is on record?
A: 7.33%

Q: Which “hERG current change (%, negative = inhibition) at 1uM” value does the source give for `CN(Cc1cccc(F)c1)C(=O)CN1C(=O)NC2(CCc3ccccc32)C1=O` (stereo not shown) here?
A: 14.2%

Q: How did the “hERG current change (%, negative = inhibition) at 1uM” value turn out when `CC(=O)c1ccc(Oc2nc3c(c(=O)n(C)c(=O)n3C)n2C)cc1` was run?
A: 9.43%

Q: `CCN(CC(=O)NCc1ccc(F)cc1)Cc1nc2cc(Cl)ccc2c(=O)[nH]1` was tested. Which “hERG current change (%, negative = inhibition) at 1uM” value did it give?
A: -52.5%

Q: How did the “hERG current change (%, negative = inhibition) at 1uM” value turn out when `O=C(COC(=O)CNC(=O)C1CCCCC1)Nc1ccc(Cl)cc1F` was run?
A: 1.46%

Q: How did the “hERG current change (%, negative = inhibition) at 1uM” value turn out when `O=C1CN(c2ccccc2F)C(=O)CN1c1ccccc1F` was run?
A: 9.56%

Q: For `CCOc1ccc2nc(NC(=O)CSC3=NCCS3)sc2c1`, which “hERG current change (%, negative = inhibition) at 1uM” value is on record?
A: 8.79%

Q: How did the “hERG current change (%, negative = inhibition) at 1uM” value turn out when `COc1ccc(C(=O)N/C(=C\c2cn(S(=O)(=O)N(C)C)c3ccccc23)C(=O)NCCCn2ccnc2)cc1` was run?
A: 11.4%

Q: `CC(C)CCNC(=O)Cc1c(C(=O)O)[nH]c2ccc(Cl)cc12` was tested. Which “hERG current change (%, negative = inhibition) at 1uM” value did it give?
A: 8.35%
